# Data as given in the supplement of paper PMC8728848.
# The list shows a part of the results.
# B1: CPA (Cicer arietinum) (protein)
# chain: MAFSYLNLVLVTLTTLFFLQTTKVKSQKSVSFHITNFTISRPSITLQGTAEFLPNVLLLNDIEHPVFVVGRALYSKPITLWNNKTGKVASFVTSFTFDVQDLKKTVPGHGLVFFLAPSGSEIPFSSDGGNLGVVDGKNAFNRFVGVEFDNFVNSWDPKYSHVGINVNSLISTKTVKWNRVSGELVKVSIVYDSVSTTLTVIVTYKNGQISILSQLVDLKAVLPDTVNIGFSASTTLVSPRQLHNIHSWSFTSTFET
# Columns and labels:
# Assay in all cases: glycan array binding signal (z-score within array); higher = stronger binding
# Settings in all cases: glycan notation: IUPAC condensed, linker removed
# [1] = biological target: GalNAc(b1-3)Gal(a1-4)Gal(b1-4)GlcNAc
# Procedure, shortened: (§1)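 Glycan array data were curated from 3228 arrays in the Consortium for Functional Glycomics database and kept only where the protein sequence was available. Glycan names were converted to IUPAC-condensed notation, and columns mapping to the same glycan were averaged. The binding signal is a within-array Z-score, averaged across arrays of the same protein sequence at different concentrations or buffers and across linkers. Negative Z-scores can be read as non-binding.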
# [2] = biological target: GalNAc(b1-3)Gal(a1-4)Gal(b1-4)GlcNAc(b1-3)Gal(b1-4)Glc
# Procedure, shortened: as §1
# [3] = biological target: GalNAc(b1-3)Gal(a1-6)Gal(b1-4)Glc
# Procedure, shortened: as §1
# GalNAc(b1-3)GalNAc = biological target: GalNAc(b1-3)GalNAc
# Procedure, shortened: as §1
# GalNAc(b1-3)GlcNAc = biological target: GalNAc(b1-3)GlcNAc
# Procedure, shortened: as §1
# GalNAc(b1-4)Gal(b1-4)Glc = biological target: GalNAc(b1-4)Gal(b1-4)Glc
# Procedure, shortened: as §1
# GalNAc(b1-4)GlcNAc = biological target: GalNAc(b1-4)GlcNAc
# Procedure, shortened: as §1
# [4] = biological target: GalNAc(b1-4)GlcNAc(b1-2)Man
# Procedure, shortened: as §1
# [5] = biological target: GalNAc(b1-4)GlcNAc(b1-2)Man(a1-3)[GalNAc(b1-4)GlcNAc(b1-2)Man(a1-6)]Man(b1-4)GlcNAc(b1-4)GlcNAc
# Procedure, shortened: as §1
# [6] = biological target: GalNAc(b1-4)GlcNAc(b1-3)GalNAc(b1-4)GlcNAc
# Procedure, shortened: as §1
# GalNAc(b1-4)GlcNAc6S = biological target: GalNAc(b1-4)GlcNAc6S
# Procedure, shortened: as §1
# GalNAc(b1-6)GalNAc = biological target: GalNAc(b1-6)GalNAc
# Procedure, shortened: as §1
# GalNAc3S(b1-4)GlcNAc = biological target: GalNAc3S(b1-4)GlcNAc
# Procedure, shortened: as §1
# GalNAc3S(b1-4)GlcNAc3S = biological target: GalNAc3S(b1-4)GlcNAc3S
# Procedure, shortened: as §1
# [7] = biological target: GalNAc3S(b1-4)[Fuc(a1-3)]GlcNAc
# Procedure, shortened: as §1
# GalNAc4S6S(b1-4)GlcNAc = biological target: GalNAc4S6S(b1-4)GlcNAc
# Procedure, shortened: as §1
# GalNAc6S(b1-4)GlcNAc = biological target: GalNAc6S(b1-4)GlcNAc
# Procedure, shortened: as §1
# Glc(a1-4)Glc = biological target: Glc(a1-4)Glc
# Procedure, shortened: as §1
# [8] = biological target: Glc(a1-4)Glc(a1-4)Glc(a1-4)Glc
# Procedure, shortened: as §1
# Glc(a1-6)Glc(a1-6)Glc = biological target: Glc(a1-6)Glc(a1-6)Glc
# Procedure, shortened: as §1
# [9] = biological target: Glc(a1-6)Glc(a1-6)Glc(a1-6)Glc
# Procedure, shortened: as §1
# Glc(b1-4)Glc = biological target: Glc(b1-4)Glc
# Procedure, shortened: as §1
# Glc(b1-6)Glc = biological target: Glc(b1-6)Glc
# Procedure, shortened: as §1
# GlcA(b1-3)Gal = biological target: GlcA(b1-3)Gal
# Procedure, shortened: as §1
# GlcA(b1-3)GlcNAc = biological target: GlcA(b1-3)GlcNAc
# Procedure, shortened: as §1
# GlcA(b1-6)Gal = biological target: GlcA(b1-6)Gal
# Procedure, shortened: as §1
# [10] = biological target: GlcA3S(b1-3)Gal(b1-4)GlcNAc(b1-2)Man
# Procedure, shortened: as §1
# [11] = biological target: GlcA3S(b1-3)Gal(b1-4)GlcNAc(b1-3)Gal(b1-4)Glc
# Procedure, shortened: as §1
# [12] = biological target: GlcNAc(a1-3)Gal(b1-4)GlcNAc
# Procedure, shortened: as §1
# [13] = biological target: GlcNAc(a1-4)Gal(b1-3)GlcNAc
# Procedure, shortened: as §1
# [14] = biological target: GlcNAc(a1-4)Gal(b1-4)GalNAc
# Procedure, shortened: as §1
# [15] = biological target: GlcNAc(a1-4)Gal(b1-4)GlcNAc
# Procedure, shortened: as §1
# [16] = biological target: GlcNAc(a1-4)Gal(b1-4)GlcNAc(b1-3)Gal(b1-4)Glc
# Procedure, shortened: as §1
# [17] = biological target: GlcNAc(a1-4)Gal(b1-4)GlcNAc(b1-3)Gal(b1-4)GlcNAc
# Procedure, shortened: as §1
# [18] = biological target: GlcNAc(a1-4)Gal(b1-4)GlcNAc(b1-3)Gal(b1-4)GlcNAc(b1-3)Gal(b1-4)GlcNAc
# Procedure, shortened: as §1
# [19] = biological target: GlcNAc(a1-4)Gal(b1-4)GlcNAc(b1-3)Gal(b1-4)[Fuc(a1-3)]GlcNAc(b1-3)Gal(b1-4)[Fuc(a1-3)]GlcNAc
# Procedure, shortened: as §1
# [20] = biological target: GlcNAc(a1-6)Gal(b1-4)GlcNAc
# Procedure, shortened: as §1
# [21] = biological target: GlcNAc(b1-2)Gal(b1-3)GalNAc
# Procedure, shortened: as §1
binder,measurement,setting,value
B1,glycan array binding signal (z-score),[1],-0.307
same,glycan array binding signal (z-score),[2],-0.323
same,glycan array binding signal (z-score),[3],-0.385
same,glycan array binding signal (z-score),GalNAc(b1-3)GalNAc,-0.508
same,glycan array binding signal (z-score),GalNAc(b1-3)GlcNAc,0.009
same,glycan array binding signal (z-score),GalNAc(b1-4)Gal(b1-4)Glc,0.277
same,glycan array binding signal (z-score),GalNAc(b1-4)GlcNAc,1.17
same,glycan array binding signal (z-score),[4],1.55
same,glycan array binding signal (z-score),[5],2.78
same,glycan array binding signal (z-score),[6],0.687
same,glycan array binding signal (z-score),GalNAc(b1-4)GlcNAc6S,0.235
same,glycan array binding signal (z-score),GalNAc(b1-6)GalNAc,-0.31
same,glycan array binding signal (z-score),GalNAc3S(b1-4)GlcNAc,-0.515
same,glycan array binding signal (z-score),GalNAc3S(b1-4)GlcNAc3S,-0.865
same,glycan array binding signal (z-score),[7],-0.492
same,glycan array binding signal (z-score),GalNAc4S6S(b1-4)GlcNAc,-0.706
same,glycan array binding signal (z-score),GalNAc6S(b1-4)GlcNAc,2.2
same,glycan array binding signal (z-score),Glc(a1-4)Glc,-0.433
same,glycan array binding signal (z-score),[8],0.27
same,glycan array binding signal (z-score),Glc(a1-6)Glc(a1-6)Glc,-0.458
same,glycan array binding signal (z-score),[9],-0.424
same,glycan array binding signal (z-score),Glc(b1-4)Glc,-0.369
same,glycan array binding signal (z-score),Glc(b1-6)Glc,-0.614
same,glycan array binding signal (z-score),GlcA(b1-3)Gal,-0.077
same,glycan array binding signal (z-score),GlcA(b1-3)GlcNAc,-0.543
same,glycan array binding signal (z-score),GlcA(b1-6)Gal,-0.263
same,glycan array binding signal (z-score),[10],-0.733
same,glycan array binding signal (z-score),[11],-0.388
same,glycan array binding signal (z-score),[12],1.92
same,glycan array binding signal (z-score),[13],0.078
same,glycan array binding signal (z-score),[14],-0.153
same,glycan array binding signal (z-score),[15],2.25
same,glycan array binding signal (z-score),[16],0.304
same,glycan array binding signal (z-score),[17],1.27
same,glycan array binding signal (z-score),[18],1.69
same,glycan array binding signal (z-score),[19],0.575
same,glycan array binding signal (z-score),[20],-0.014
same,glycan array binding signal (z-score),[21],-0.522
